From the antibiotic and cytotoxicity screens of Wong et al. (2023)
The other results are listed elsewhere or left out.

Each compound was assayed on HSkMC (human skeletal muscle cells) (assay: cytotoxicity call (relative viability < 0.9)). Conditions: 10 µM.
With `Cc1cc[nH]c(=O)c1` the cytotoxicity call was “inactive”. In the case of `C[C@@H]1C[C@H](O)/C=C/[C@H](O)[C@@H](O)CC(=O)O1`, the cytotoxicity call is reported as “inactive”. In the case of `COC(=O)Cc1csc(CC(N)=O)n1`, the cytotoxicity call is reported as “inactive”. `C[C@@H]1CCCCO[C@@H](CN(C)C(=O)c2ccccc2)[C@H](C)CN([C@H](C)CO)C(=O)c2cc(NC(=O)Nc3ccc4c(c3)OCO4)ccc2O1` was tested, and the cytotoxicity call was “inactive”. For `C[C@@H]1CCCCO[C@@H](CN(C)C(=O)c2ccccc2)[C@H](C)CN([C@@H](C)CO)C(=O)c2cc(NC(=O)Nc3ccc4c(c3)OCO4)ccc2O1`, the cytotoxicity call was “inactive”. `O=C(C[C@H]1CC[C@@H](NS(=O)(=O)c2ccc(F)cc2)[C@H](CO)O1)N1CCC(Cc2ccccc2)CC1` was tested, and the cytotoxicity call was “inactive”. With `NNC(=O)[C@H]1CCCNC1=O` the cytotoxicity call was “inactive”. In the case of `CC(C)(C)[S@@](=O)N1Cc2cc(C(=O)NCc3ccncc3)nc(-c3cccc(-c4cccc(C#N)c4)c3)c2[C@H]1CCO`, the cytotoxicity call is reported as “inactive”. With `COC(=O)C[C@H]1CC[C@H]2[C@@H](COC[C@H](O)CN2S(=O)(=O)c2cn(C)cn2)O1` the cytotoxicity call was “inactive”. For `COCC(=O)N1C[C@H](C)[C@@H](OC)CN(C)C(=O)c2cc(NC(=O)Nc3cccc(F)c3)ccc2OC[C@H]1C`, the cytotoxicity call was “inactive”. In the case of `C[C@@H]1CN([C@@H](C)CO)C(=O)Cc2cc(NC(=O)C3CC3)ccc2O[C@@H]1CN(C)C(=O)NC1CCCCC1`, the cytotoxicity call is reported as “inactive”. `N[C@]12CC[C@](C(=O)O)(CC1)C2` was tested, and the cytotoxicity call was “inactive”. With `N[C@@H](C(=O)O)C1=CCC=CC1` the cytotoxicity call was “inactive”. For `C[C@@H]1CCCCO[C@@H](CN(C)CC2CCCCC2)[C@H](C)CN([C@@H](C)CO)C(=O)c2cc(NC(=O)NC3CCCCC3)ccc2O1`, the cytotoxicity call was “inactive”. `C[C@H](CO)N1C[C@H](C)[C@H](CN(C)C(=O)Cc2ccccc2)OCCCC[C@H](C)Oc2ccc(NC(=O)c3ccccc3)cc2C1=O` was tested, and the cytotoxicity call was “inactive”. With `Cc1noc(C)c1NC(=O)N(C)C[C@H]1Oc2ccc(NC(=O)CCCN(C)C)cc2C(=O)N([C@@H](C)CO)C[C@H]1C` the cytotoxicity call was “inactive”. With `C[C@@H]1CN([C@@H](C)CO)C(=O)c2cc(NC(=O)c3ccncc3)ccc2O[C@H]1CN(C)Cc1ccncc1` the cytotoxicity call was “inactive”. With `CCO[C@H]1OC(C(=O)N2CCN(Cc3ccc4c(c3)OCO4)CC2)=C[C@@H](C)[C@@H]1CCCOC(=O)NCCCCCC(=O)NO` the cytotoxicity call was “inactive”. With `CN1CC(=O)N=C1NC(=O)[C@H]1CCCN(S(=O)(=O)c2ccc3c(c2)oc(=O)n3C)C1` the cytotoxicity call was “inactive”. In the case of `O[C@H]1CCCC[C@@H]1O`, the cytotoxicity call is reported as “inactive”. `COC(=O)[C@@H](C)N(C#N)c1nc(C)cc(C)n1` was tested, and the cytotoxicity call was “inactive”. For `C[C@H](O)C#Cc1cnc2c(c1)C(=O)N([C@@H](C)CO)C[C@@H](C)[C@H](CN(C)C(=O)Nc1ccc(C(F)(F)F)cc1)O2`, the cytotoxicity call was “inactive”. In the case of `C[C@H](CO)N1C[C@H](C)[C@H](CN(C)C(=O)Nc2ccc(F)cc2)OCCCC[C@H](C)Oc2ccc(NS(=O)(=O)c3ccc(Cl)cc3)cc2C1=O`, the cytotoxicity call is reported as “inactive”. For `COc1ccc(NC(=O)N(C)C[C@@H]2Oc3ccc(NS(=O)(=O)c4c(C)noc4C)cc3CC(=O)N([C@@H](C)CO)C[C@@H]2C)cc1`, the cytotoxicity call was “inactive”. For `C[C@@H]1CN([C@@H](C)CO)C(=O)Cc2cc(NC(=O)Nc3cccc4ccccc34)ccc2O[C@@H]1CN(C)CC1CCCCC1`, the cytotoxicity call was “inactive”. For `CC[C@H]1OC(=O)C[C@@H](O)[C@H](C)[C@@H](O[C@@H]2O[C@H](C)[C@@H](O)[C@H](N(C)C)[C@H]2O)[C@@H](CCN2C[C@H](C)C[C@H](C)C2)C[C@@H](C)C(=O)/C=C/C(C)=C/[C@@H]1CO[C@@H]1O[C@H](C)[C@@H](O)[C@@H](OC)[C@H]1OC`, the cytotoxicity call was “inactive”. In the case of `COc1ccc(S(=O)(=O)N[C@@H]2CC[C@@H](CC(=O)N3CCC(Cc4ccccc4)CC3)O[C@H]2CO)cc1`, the cytotoxicity call is reported as “inactive”. With `C[C@H](CO)N1C[C@H](C)[C@@H](CN(C)C)OCCCC[C@H](C)Oc2ccc(NC(=O)Nc3cccc4ccccc34)cc2C1=O` the cytotoxicity call was “inactive”. For `C[C@@H]1CN([C@@H](C)CO)C(=O)c2cc(NC(=O)Cc3ccccc3)ccc2O[C@@H](C)CCCCO[C@H]1CN(C)Cc1ccc2c(c1)OCO2`, the cytotoxicity call was “inactive”. `COc1cccc(NC(=O)N(C)C[C@H]2Oc3cc(C#Cc4ccncc4)ccc3S(=O)(=O)N([C@@H](C)CO)C[C@H]2C)c1` was tested, and the cytotoxicity call was “inactive”. In the case of `CCC(=O)Nc1ccc2c(c1)OC[C@H](C)N(C(=O)CN1CCOCC1)C[C@@H](C)[C@H](OC)CN(C)C2=O`, the cytotoxicity call is reported as “inactive”. `CCCNC(=O)N1C[C@@H](O)COC[C@@H]2O[C@H](CC(=O)N3CCOCC3)CC[C@H]21` was tested, and the cytotoxicity call was “inactive”.
